The supplement of paper PMC11417369
This is one part of the list.

Tested on: PfSIP2 AP2 domain 1 (GST-tagged)
Assay: gcPBM binding intensity (ln(normalized median fluorescence intensity)); higher = stronger DNA binding
Method in brief: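 Binding intensity is the highest Masliner-normalised natural-log median intensity over replicate spots in either probe orientation. To obtain it, GST-tagged P. falciparum DNA-binding domains made in E. coli were incubated for 1 h on an Agilent 4 × 180k array of primer-extended double-stranded 36-bp intergenic genomic probes plus negative controls. Detection used Alexa488 anti-GST antibody with scanning at 488 nm.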

| Sequence | gcPBM binding intensity (ln) |
| --- | --- |
| AAAAAAAAAAAAAAAACACACATATAGATTATTGTA [CACACA_site7797] | 7.5 |
| TATTTTTATTTTCCTTCACACATTTTTTATATTTTT [CACACA_site5830] | 6.92 |
| TTATAATTTAATAAATGTACATAAATAATATACATA [XGTACX_site7271] | 7.08 |
| AGACAATATCTTATTTGTACATATGTATTCCTCATA [XGTACX_site5757] | 7.07 |
| ACTTTTTTTTTTTTTTTAGATTACATAAATATAAAT [CACACA_negctrl_site139] | 7.56 |
| TATGTATATTTAAATGCATGTGATTATTTTTGACTT [TGCATGCA_site568] | 7.05 |
| TTATAAATTTAAAAAGTGCATAATAATAACAAAAAG | 8.93 |
| ATTATGGATACATAAACACACATATATATAAAAAAA [CACACA_site4303] | 7.01 |
| ACATGATAAATAGTCACACATAAATATAATATATAT [CACACA_site5207] | 7.15 |
| AATTATTCATAAAATGCATGTACATGGTTTAATATT [TGCATGCA_site87] | 6.99 |
| TCGTAAACTTTATGCACACACATATACATATTTCAT [CACACA_site739] | 7.35 |
| ATACATGTTTTATGTGCACACAAAGTTGTTATGAGG [CACACA_site4032] | 8.79 |
| ATAATACACAAGCACACACACACACGGATATTTATA [CACACA_site6714] | 7.19 |
| ATAATTATATTTTATTCACACATCGTTATATAGTAA [CACACA_site4743] | 7.1 |
| AAATGCGTATATAACGCATGTATAAGAACATTTTTT [TGCATGCA_site225] | 6.75 |
| TTATAATCTATACATATATATGTATGTATGTCTCAA [CACACA_negctrl_site1702] | 6.9 |
| GAAGTATTATTAAAGCTGCACTTTTCTAAAATAAAC [GTGCAC_site9429] | 8.63 |
| ACATCATTTTTATGTACACACACATATACGTTGAAT [CACACA_site5095] | 7.43 |
| TAAAATTTACAACACTGTACTTGAATTTATCTTTAA [XGTACX_site241] | 7 |
| CATTAATTTAATAAATGTACATAAAATATATATTAT [XGTACX_site8085] | 7.22 |
| GCAGTATGCGATCAGTGTACGAGTTATTTTATAAAA [XGTACX_site4764] | 6.69 |
| GTTATACACATATATACACACATATGTAAATATATA [CACACA_site9080] | 7.19 |
| CTAATATATGTATGCACACACAATATATACATATTT [CACACA_site3360] | 7.74 |
| ATATTACAAATATAATGTACAAAATATAAATATGCA [XGTACX_site8106] | 6.85 |
| GTCCTTACTAATTAATTTTAGGCCATATAGTTTGTC [XGTACX_negctrl_site199] | 7.23 |
